Literature values in patent publication US20250115648A1 (priority 2013, published 2025).
Several values for one entry are separate records, joined by “and”; a condition that tells them apart may be missing. Equal entries are not always repeated. For at least one compound, name, drawing or mass did not settle the structure.

Conditions: cited from earlier work

For `Cc1cc(=O)oc2cc(O)ccc12` [4-methylumbelliferone], the “Peak Abs.” value is given as 360 nanometers and the “Peak Em.” value is given as 440 nanometers.

For `CN(C)c1ccc2cc3ccc(N(C)C)cc3nc2c1` [Acridine Orange + DNA, Acridine Orange], the “Peak Abs.” value is listed as 500 nanometers and the “Peak Em.” value is listed as 526 nanometers.

For `CN(C)c1ccc2cc3ccc(N(C)C)cc3nc2c1` [Acridine Orange + RNA, Acridine Orange], the “Peak Abs.” value is given as 460 nanometers and the “Peak Em.” value is given as 650 nanometers.

For `CCN(CC)CC.CCN(CC)CC.CCN(CC)CC.O=C(ON1C(=O)CCC1=O)C1CCN(C(=O)COc2cc(S(=O)(=O)O)c3ccc4c(S(=O)(=O)O)cc(S(=O)(=O)O)c5ccc2c3c54)CC1` [Alexa Fluor 405], the “Peak Abs.” value is given as 401 nanometers and the “Peak Em.” value is given as 421 nanometers.

For `CN(C)c1ccc(C(=N)c2ccc(N(C)C)cc2)cc1.Cl` [Auramine O], the “Peak Abs.” value is given as 460 nanometers and 445 nanometers and the “Peak Em.” value is given as 550 nanometers and 500 nanometers.

In the case of `CNc1ccc2c(c1N)C(=O)OC21c2cc(F)c(O)cc2Oc2cc(O)c(F)cc21` [DAF-FM], the “Peak Abs.” value is listed as 493 nanometers and the “Peak Em.” value is listed as 540 nanometers.

For `N=C(N)c1ccc(-c2cc3ccc(C(=N)N)cc3[nH]2)cc1` [DAPI], the “Peak Abs.” value is given as 345 nanometers and the “Peak Em.” value is given as 455 nanometers.

For `CCCCCCCCN(CCCCCCCC)c1ccc2cc(/C=C/c3cc[n+](CCCS(=O)(=O)[O-])cc3)ccc2c1` [Di-8 ANEPPS], the “Peak Abs.” value is listed as 468 nanometers and 465 nanometers and the “Peak Em.” value is listed as 635 nanometers.

In the case of `CC[n+]1c(-c2ccccc2)c2cc(N)ccc2c2ccc(N)cc21` [Ethidium Bromide], the “Peak Abs.” value is listed as 521 nanometers and the “Peak Em.” value is listed as 602 nanometers.

For `Cc1ccc(N(CC(=O)O)CC(=O)O)c(OCCOc2cc(-c3c4cc(Cl)c(=O)cc-4oc4cc(O)c(Cl)cc34)ccc2N(CC(=O)O)CC(=O)O)c1` [Fluo-3], the “Peak Abs.” value is listed as 506 nanometers and the “Peak Em.” value is listed as 540 nanometers.

For `CN1CCN(c2ccc3[nH]c(-c4ccc5[nH]c(-c6ccc(O)cc6)nc5c4)nc3c2)CC1` [Hoechst 33258], the “Peak Abs.” value is given as 345 nanometers.

In the case of `CCOc1ccc(-c2nc3ccc(-c4nc5ccc(N6CCN(C)CC6)cc5[nH]4)cc3[nH]2)cc1` [Hoechst 33342], the “Peak Abs.” value is given as 347 nanometers and the “Peak Em.” value is given as 483 nanometers.

For `Cc1c(C)n2c(CCl)c(C)c(=O)n2c1=O` [Monochlorobimane(mBCI), Monochlorobimane], the “Peak Abs.” value is given as 380 nanometers and the “Peak Em.” value is given as 461 nanometers.

In the case of `O=C1OC2(c3cc(F)c(O)cc3Oc3cc(O)c(F)cc32)c2ccccc21` [Oregon Green 488], the “Peak Abs.” value is given as 498 nanometers and the “Peak Em.” value is given as 524 nanometers.

In the case of `CN1/C(=C/c2cc[n+](CCC[N+](C)(C)C)cc2)Oc2ccccc21.[I-].[I-]` [PO-PRO-1], the “Peak Abs.” value is given as 435 nanometers and the “Peak Em.” value is given as 455 nanometers.

In the case of `CN1/C(=C/C=C/c2cc[n+](CCC[N+](C)(C)C)cc2)Oc2ccccc21.[I-].[I-]` [PO-PRO-3], the “Peak Abs.” value is listed as 539 nanometers and the “Peak Em.” value is listed as 570 nanometers.

In the case of `CC[N+](C)(CC)CCC[n+]1c(-c2ccccc2)c2cc(N)ccc2c2ccc(N)cc21.[I-].[I-]` [Propidium Iodide (PI), Propidium Iodide], the “Peak Abs.” value is listed as 530 nanometers and the “Peak Em.” value is listed as 618 nanometers.

For `Cl.N=c1ccc2c(-c3ccccc3C(=O)O)c3ccc(N)cc3oc-2c1` [Rhodamine 110], the “Peak Abs.” value is given as 496 nanometers and the “Peak Em.” value is given as 520 nanometers.

In the case of `CC(=O)Nc1ccc(C=Cc2ccc(N=C=S)cc2S(=O)(=O)O)c(S(=O)(=O)O)c1` [SITS], the “Peak Abs.” value is listed as 365 nanometers and the “Peak Em.” value is listed as 460 nanometers.

For `CCCN1C=C/C(=C\c2sc3ccccc3[n+]2C)c2ccccc21` [SYBR Safe], the “Peak Abs.” value is given as 507 nanometers and the “Peak Em.” value is given as 524 nanometers.

For `O=S(=O)([O-])c1cc(S(=O)(=O)O)ccc1C1=c2cc3c4c(c2Oc2c1cc1c5c2CCCN5CCC1)CCC[N+]=4CCC3` [Sulforhodamine 101], the “Peak Abs.” value is listed as 578 nanometers and 577 nanometers and the “Peak Em.” value is listed as 593 nanometers.

In the case of `CN1C(=Cc2cc[n+](CCC[N+](C)(C)C)c3ccccc23)Sc2ccccc21.[I-].[I-]` [TO-PRO-1], the “Peak Abs.” value is given as 515 nanometers and the “Peak Em.” value is given as 530 nanometers.

In the case of `CN1/C(=C/C=C/c2cc[n+](CCC[N+](C)(C)C)c3ccccc23)Sc2ccccc21.[I-].[I-]` [TO-PRO-3], the “Peak Abs.” value is listed as 642 nanometers and the “Peak Em.” value is listed as 657 nanometers.

For `CN1/C(=C/c2cc[n+](CCC[N+](C)(C)C)c3ccccc23)Oc2ccccc21.[I-].[I-]` [YO-PRO-1], the “Peak Abs.” value is given as 491 nanometers and the “Peak Em.” value is given as 507 nanometers.

For `C[n+]1c(C=CC=C2C=CN(CCC[N+](C)(C)C)c3ccccc32)oc2ccccc21` [YO-PRO-3], the “Peak Abs.” value is listed as 612 nanometers and the “Peak Em.” value is listed as 628 nanometers.

For `CN1/C(=C/c2cc[n+](CCC[N+](C)(C)CCC[N+](C)(C)CCC[n+]3ccc(/C=C4/Oc5ccccc5N4C)c4ccccc43)c3ccccc23)Oc2ccccc21.[I-].[I-].[I-].[I-]` [YOYO-1], the “Peak Abs.” value is listed as 491 nanometers and the “Peak Em.” value is listed as 509 nanometers.
